Laboratory results taken from the RNAGym collection of RNA variant scans (doi:10.7554/elife.90254).
The source gives no read counts; variants with many changes may rest on few reads.

B1: LINE1-mini (parent)
chain: GGCAGAGCUCAACACAGCGUGGCAAAGUGGCUGUGGCUAGACUGCC

Variants of: B1
Assay: self-cleavage, relative activity (ratio to wild type); higher = more cleavage; in vitro, sequencing; the parent is a self-cleaving ribozyme

Variant	self-cleavage
C3G C10G G22U G44A C46A	0.02
C3A U28A G33C G35U G40C G44C C45A	0.01
C3A U20G G27A G44A	0.4
C3G A4U G36A C46U	0.19
C3G A4G C18A G29A G30C	0.09
C3A U9A G29A G44U	0.1
C3G A24U C45A	0.2
C3A G22C C46A	0.16
C3A G22C C46G	0.08
C3G A16G G17U U28C U32G C42A	0.45
C3A U28C G36A G40A U43G C45U	0.16
C3A U20G G40C	0.06
C3G A24U C42G	0.06
C3G A14U C18U C42U	0.07
C3G A11G G40C C46G	0.01
C3A U28G U32C	0.15
C3G A4C G17C G33C G40A	0.01
C3A G22U A41C	0.11
C3A U32A U34C U38G	0.18
C3G C8A G22U	1
C3G A12U U32A U34G	0.01
C3G A6C G17C G29U	0.53
C3G A11C G33C U34C	0.01
C3G A16G A25G	0

Variant	self-cleavage
C3G C10A G30U C37A	0.02
C3G A16U G44A	0.06
C3G C10U A16C G30C U38C	0.03
C3G A4G U20G G33C	0.03
C3G A4G A16U G22C G27U G30U G33U C37G	0.16
C3A U20G G21C G40C	0.14
C3G A41U C46A	0.06
C3G C8G A26G U32G G33U	0.01
C3G C10A C18U U28C	0.05
C3G C10A C15U G21U C23A C42U	0.03
C3G A4U C15U	0.19
C3G C13G C18G U34A	0.12
C3G A6U G21A C23U G35C	0.17
C3A G35C C37A	0.18
C3G C10A G33C G35U	0.01
C3G C15U G22U C42G	0.05
C3G A16U C31U G44U	0.1
C3G A11U C13G G36A	0
C3A G22C G30A U43G G44C C45U	0.04
C3G C10A G35A	0.03
C3A U9A U28A C45U	0.12
C3G C18G A39U	0.06
C3G A14C G17C G21U C31A	0.03
C3G A11U C31G C45G	0.01

Variant	self-cleavage
C3G A4C C15A G17U	0.03
C3G A24C G30A G36U	0.05
C3G C10A C46A	0.03
C3G C8U C13U A14U G19U C23G G27C G35C	0.33
C3A G30A G35C	0.38
C3G A4C C8G	0.06
C3G A25C G29A	0.21
C3A U34G C37U	0.24
C3A G30C C37G	0.05
C3G C8G U28C U38G	0.14
C3G A16U C23A U28A G44U	0.66
C3G C15A C18A	0.02
C3G A12U A24C G29U	0.05
C3G C10U C42U	1.53
C3G A6C G35C C42G	0.03
C3A G22U C37U	0.12
C3G C15U A26U	0.33
C3G A11C G17C G27U	0.02
C3G A4G G33U C46A	0.13
C3A U9G G22U	0.33
C3G C8U U9G C10U U20G	0.04
C3G C13G G22C	0.12
C3G A4G G17U A26C G36A	0.13
C3A G22A A24G U28A G30C C31A	0.15

Variant	self-cleavage
C3G A14U G19A G30C G44A	0.03
C3G A14C G35C	0.03
C3A G29A C31U U32G U38G	0.05
C3G C13G G19U A24C G33U G40C C46A	0.03
C3A G36C G44U C46A	0.09
C3A G33A U38C A41U	0.03
C3A G29C C31A	0.26
C3A U20G U28G	0.06
C3A G29C C31A G36U	1.07
C3G A12G G17A C45U	0.03
C3A U20A G21A U34G	0.19
C3A U28G A39C C46A	0.07
C3G A4G G27U A39G C42U U43A	0.31
C3A G29U C42U	0.34
C3G A6U C15A U38C	0.1
C3G A24C C37A	0.12
C3G C8U A24C U28G	0.16
C3G A6G C18A C23U U34C G35A	0.02
C3G C13U G21U A41G C45U	0.18
C3A U34A G44U	0.2
C3G A12U C45U	0.08
C3G A11U A25G	0.02
C3G C15U C37U	0.36
C3G C8U A16G	0.04

Variant	self-cleavage
C3A U9C G17C G33A G40A C46A	0.01
C3G C13U U32C G33U C37G U38A	0.45
C3G C8A U9C C10A G36A	0.1
C3G C10G U28G U32A A39U C45A	0.02
C3G A6G G7U A25C	0.06
C3G A16C G22U A41U G44C	0.01
C3A U9A G21C G29C C31A A39C	0.03
C3G C10U G21A G30A A41C	0.05
C3G A4C G17U	0.19
C3A G27A G33A U34A	0.23
C3G C8A A11U G21C G36A	0.01
C3G C8A A11G	0.05
C3G A4G A11U A16U C18U G44A	0.02
C3G C10G U20C	0.04
C3G C13A G19C G35A C45A	0.09
C3G A4U A25U U28C G35A U38A A41G	0.01
C3G A6G A24G G29U G40A	0.04
C3A G27C C31U U32C	0.32
C3G A16G C18G G19U U38G	0.07
C3G A11C A14C G30U G35A	0.02
C3G A4U C10U G36U	0.03
C3G A4U C10U G36A	0.21
C3G A24U G30C	0.09
C3G C10A C15G G40U C45G	0.01

Variant	self-cleavage
C3G A6G U20A G29C G36U	0.06
C3A G30A C37U	0.47
C3G C10A A24G	0.1
C3A U9G A14U G21A	0.5
C3A G36U A39U	0.23
C3G A11C C13U C15A	0.02
C3G C8G U34G	0.05
C3G C8G U34A	0.04
C3A G22A A24C U28C G29U C31G U34A U38G	0.03
C3G C15U U28C G30A	0.24
C3G A26C U34G	0.05
C3G A4C U28G	0.43
C3A U20C G22U	0.71
C3G C8A A25G G36C C37U	0.48
C3G C18A G30A	0.11
C3A U9G C18G G35A G36U	0.66
C3A U28A G44C C45U C46U	0.05
C3A G29U A41U	0.38
C3A G35U C46A	0.17
C3A U32A G33A	0.17
C3A G21U U38A	0.26
C3G C10A C23G A25G	0
C3A G35C G40U C42G	0.22
C3G C8U G29A C37U C45A C46U	0.02

Variant	self-cleavage
C3G A6G U20C	0.09
C3G A11G G19A G35U	0
C3G C18A A39U	0.04
C3G C15A A26C G27A G33U	0.43
C3G C8G A25C	0.29
C3G C13U U34C U43C	0.09
C3G A41G C42G	0.09
C3A U9G C23U G29U A39G	1.02
C3G A6C G29U	0.27
C3G A4U C10G C13G G40A	0.01
C3G A4G G36C U43G	0
C3G A11G G21U U32A U38A	0.02
C3G C15A A26U G29A	0.7
C3G C13U A24G G27U C31G U32A U43A G44U	0.03
C3G A12G C23A G44A C46A	0.6
C3G A4G G33U G40U C45A	0.05
C3G A12G G33C	0.14
C3G A4C A12G G21A G22A G30C	0.13
C3G A6G G17A U28C G29U	0.04
C3A U9A G27A U38C A41C U43C	0.03
C3G C10A A14U A41G	0.01
C3G A4G G22C C46G	0.03
C3G C8G C10U G17A G40U	0.03
